The whole screen tested about 310,000 compounds, of which about 14,000 (4.5%) showed an effect of 50% or more. Effects have a minus sign here. The list shows a part of the results.
Molecular target: human ether-à-go-go-related gene (hERG) potassium channel (human, UniProt Q12809)
Assay: primary screen, population patch clamp on CHO cells stably expressing hERG
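Also: peak tail current of the secondary pulse compared with the same well before compound.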

human ether-à-go-go-related gene (hERG) potassium channel, sequence (Q12809 whole entry, looked up): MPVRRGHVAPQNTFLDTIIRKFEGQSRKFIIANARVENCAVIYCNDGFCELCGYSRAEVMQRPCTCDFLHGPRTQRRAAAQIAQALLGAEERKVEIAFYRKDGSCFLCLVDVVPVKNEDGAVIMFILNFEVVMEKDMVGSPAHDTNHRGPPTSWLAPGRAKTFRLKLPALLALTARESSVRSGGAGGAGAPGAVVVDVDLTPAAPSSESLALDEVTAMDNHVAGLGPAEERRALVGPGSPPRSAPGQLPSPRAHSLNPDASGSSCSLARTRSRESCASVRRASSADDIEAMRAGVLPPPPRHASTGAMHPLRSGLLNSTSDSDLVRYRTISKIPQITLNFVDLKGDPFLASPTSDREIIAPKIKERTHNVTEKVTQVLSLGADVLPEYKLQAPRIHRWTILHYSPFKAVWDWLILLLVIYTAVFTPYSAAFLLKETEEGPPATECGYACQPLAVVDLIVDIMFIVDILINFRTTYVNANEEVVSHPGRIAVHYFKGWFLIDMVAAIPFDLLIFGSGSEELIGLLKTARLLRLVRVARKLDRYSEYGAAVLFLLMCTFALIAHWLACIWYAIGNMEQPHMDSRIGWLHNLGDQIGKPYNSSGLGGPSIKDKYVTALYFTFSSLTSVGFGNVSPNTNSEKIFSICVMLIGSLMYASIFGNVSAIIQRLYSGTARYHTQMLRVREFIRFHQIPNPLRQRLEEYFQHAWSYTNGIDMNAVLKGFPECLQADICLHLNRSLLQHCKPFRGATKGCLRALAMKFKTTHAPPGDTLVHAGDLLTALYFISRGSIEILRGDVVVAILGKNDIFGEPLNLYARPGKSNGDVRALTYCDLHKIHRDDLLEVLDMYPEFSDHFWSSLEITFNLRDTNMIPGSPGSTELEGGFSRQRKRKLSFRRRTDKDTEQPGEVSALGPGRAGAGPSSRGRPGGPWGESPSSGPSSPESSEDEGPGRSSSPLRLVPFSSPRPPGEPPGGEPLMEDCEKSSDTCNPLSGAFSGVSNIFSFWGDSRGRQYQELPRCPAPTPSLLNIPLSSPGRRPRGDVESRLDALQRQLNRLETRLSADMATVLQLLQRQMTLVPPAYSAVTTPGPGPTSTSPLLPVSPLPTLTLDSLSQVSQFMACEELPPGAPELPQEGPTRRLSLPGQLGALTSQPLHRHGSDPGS

Row | SMILES | hERG current change (%, negative = inhibition) at 10uM [%]
1 | Nc1ncnc2c1ncn2CCN1CCCCC1 | -9.9
2 | Nc1nccc(-c2nn(-c3ccc(Cl)cc3)ccc2=O)n1 | 19.4
3 | Cc1ccccc1C(=O)NC(C)c1ccc2c(c1)CCCC2 (stereo not shown) | -5.29
4 | O=C(O)COc1ccc(=O)n(-c2ccccc2)n1 | 8.54
5 | Fc1ccc(Oc2nccc(-c3ccc(Cl)cc3)n2)cc1 | 1.89
6 | O=C(c1cncc(Br)c1)N1CCN(c2ccc([N+](=O)[O-])cc2)CC1 | -77
7 | CC(=O)OCC(=O)NCCCOc1cccc(CN2CCCCC2)c1.Cl | -2.29
8 | Cc1sc2c(c1C)C(c1cccs1)=NCC(=O)N2CC(=O)NCc1cccs1 | -56.2
9 | O=C(CCCn1cc([N+](=O)[O-])cn1)NCc1ccccc1 | -5.64
10 | CC(=O)Nc1ccc(N(C(=O)c2cnccn2)C(C(=O)NC2CCCCC2)c2ccc(F)cc2)cc1 (stereo not shown) | 0.645
11 | COc1ccc(OC)c(-c2csc(NC(=O)Cn3[nH]c(=O)c4ccccc4c3=O)n2)c1 | 1.19
12 | O=C(c1cccnc1)N1c2ccccc2Sc2ccccc21 | -18.1
13 | CCOC(=O)Cc1csc(NC(=O)c2cc(C)c(C)s2)n1 | -8.58
14 | COc1ccc(Cl)cc1NC1=NCC(C)S1 (stereo not shown) | -7.11
15 | CS(=O)(=O)Oc1ccc2c(c1)O/C(=C\C=C\c1ccccc1)C2=O | 8.05
16 | CC1CCc2nn(CC(=O)Nc3c(F)cc(F)cc3Br)cc2C1 (stereo not shown) | 3.49
17 | CCOC(=O)C1=C(N)Oc2cc(C)oc(=O)c2C12C(=O)N1c3c(cccc32)C(C)=CC1(C)C (stereo not shown) | -13.6
18 | CCN(CC)S(=O)(=O)c1cccc(C(=O)OCC(=O)Nc2ccc3c(c2)c2ccccc2n3CC)c1 | 4.01
19 | CCOC(=O)Cc1csc(NC(=S)NC(=O)c2ccccc2)n1 | 16.1
20 | N#Cc1ccc(C(c2nnnn2CCc2ccccc2)N2CCCCCC2)cc1 (stereo not shown) | -26.3
21 | O=C(CCNC(=O)c1ccccc1)OCC(=O)c1cccc(Cl)c1 | 3.67
22 | COc1ccc(/C=N/NC(=O)CCC(=O)Nc2ccccc2)cc1OC | -3.99

Row | SMILES | hERG current change (%, negative = inhibition) at 10uM [%]
23 | O=C(c1ccc(Br)o1)N1CCN(c2ccc3nnc(-c4ccc(F)cc4)n3n2)CC1 | -46.4
24 | O=C(OCc1nnc(-c2ccc(Cl)cc2)o1)c1ccncc1 | 3.07
25 | Cc1cc2nc(CCl)cc(=O)n2[nH]1 | 17.4
26 | Cc1cc(C)n2nc(C(=O)N/N=C/c3c4ccccc4cc4ccccc34)nc2n1 | -15.8
27 | Cc1[nH]c(C)c(S(=O)(=O)Nc2cccc(Cl)c2C)c1C(=O)N1CCCCC1 | -11.3
28 | O=c1cc(-c2ccccc2Cl)oc2c(Br)ccc(O)c12 | 9.75
29 | CCOc1ccc2cc(S(=O)(=O)N3CCCCC3)ccc2c1 | 22
30 | O=C(c1cccs1)N1CCc2c([nH]c3ccccc23)C1c1ccccn1 (stereo not shown) | -35.2
31 | COc1cc([N+](=O)[O-])ccc1NC(=O)/C=C\C(=O)O | 7.85
32 | Cc1ccccc1-n1c(SCC(=O)N2CCN(c3ccccc3)CC2)nnc1-c1ccncc1 | -38.2
33 | COc1ccc(CCNC(=O)c2ccccc2NC(=O)C2=C(C)OCCS2)cc1OC | 19.4
34 | CC1CCc2sc(C(=O)OCC(=O)NC(N)=O)cc2C1 (stereo not shown) | 22
35 | CC(C)C(c1nnnn1Cc1ccccc1)N1CCc2ccccc2C1 (stereo not shown) | -1.4
36 | CCN1CCN(CCNC(=O)c2ccc(CS(=O)(=O)c3ccccc3C)o2)CC1 | -1.23
37 | COc1ccc(S(=O)(=O)NC(C)C(=O)O)cc1 (stereo not shown) | 1.62
38 | COc1cc(C(F)(F)F)nc2c(Br)c(C(C)(C)C)nn12 | 9.62
39 | COc1ccc(NC(=O)CSc2nnnn2-c2ccc(OC)cc2)cc1 | 18.4
40 | COc1ccc(N(C(=O)CSCC(=O)Nc2cc(C)on2)C(C(=O)NC2CCCCC2)c2ccc(O)c(O)c2)cc1 (stereo not shown) | 12.1
41 | Nc1ccccc1-c1nnc(SCc2ccccc2Cl)[nH]c1=O | -0.313
42 | CC1CN(C(=O)C2CCCN2S(=O)(=O)c2ccc(Cl)cc2)CC(C)O1 (stereo not shown) | 0.336
43 | O=C(C[n+]1ccc(-c2ccccc2)cc1)Nc1ccc([N+](=O)[O-])cc1.[Br-] | -24.2
44 | CC1(CCc2ccccc2)NC(=S)N(c2ccc(Cl)cc2)N1 (stereo not shown) | 12.7

Row | SMILES | hERG current change (%, negative = inhibition) at 10uM [%]
45 | COc1ccc(C2(C)NC(=O)N(CC(=O)NC3(C#N)CCCCC3)C2=O)cc1 (stereo not shown) | 14.3
46 | COc1cc(C(=O)OCC(=O)N2CCC(C)CC2)cc2c1OCCO2 | 0.559
47 | Cc1cccc2sc(NNC(=O)c3ccc(S(=O)(=O)N4CC(C)CC(C)C4)cc3)nc12 (stereo not shown) | 5.29
48 | CCc1cc(C(=O)NCC2CCCO2)sc1C (stereo not shown) | 19.5
49 | CCN(CC)CCCN1C=C2C(=O)C(C)(OC(=O)C3CCCC3)C(=O)C(c3ccccc3)=C2C=C1CCCC(=O)OC (stereo not shown) | -16.7
50 | CC1(c2nnc(-c3ccc(Cl)cc3)o2)CC(c2ccncc2)=NO1 (stereo not shown) | -30.9
51 | CCCCN(C)C(=O)c1ccc2c(c1)N(CC)C(=O)c1ccccc1S2=O (stereo not shown) | 1.34
52 | CSCCOC(=O)c1[nH]c2c(c1C)C(=O)CC(c1ccco1)C2 (stereo not shown) | -1.18
53 | CCOc1ccc(C(=O)NCC(C)CN(C)C)cc1OCC (stereo not shown) | -34.5
54 | COc1ccc(-c2ccnc3[nH]n(-c4ccccc4)c(=O)c23)cc1 | 10.5
55 | N#CCCN1CCN(C(=S)c2ccc(-c3ccc(Cl)cc3)o2)CC1 | -55.8
56 | C=CCNc1nc2c(c(=O)[nH]c(=O)n2C)n1CCCCC | -12.1
57 | S=C1NC2=C(CCCC2=C2SCCS2)C(c2ccccc2)N1 (stereo not shown) | 11.7
58 | CCCCNc1ccc(C(=O)OCCOCCOCCOCCOCCOCCOCCOCCOCCOC)cc1 | -9.24
59 | O=C(COC(=O)c1cccs1)Nc1ccc(F)c(F)c1 | 12.2
60 | C=CCNC(=O)C(=O)N/N=C/c1ccco1 | -8.46
61 | Cc1cccc(C)c1OCCOCCN1CCN(C)CC1 | -11.4
62 | Cc1oc(-c2ccccc2F)nc1CN1CCC(C(=O)NC2CCCc3ccccc32)CC1 (stereo not shown) | -63.9
63 | COc1ccc(CN2CCN(CCCCOc3ccc(Cl)cc3)CC2)c(OC)c1OC.O=C(O)C(=O)O | -74.4
64 | COc1ccc(OCC(=O)N2CCCC(N3CCN(c4ccccc4C)CC3)C2)cc1 (stereo not shown) | -85.9
65 | COc1nc2ccccc2c(=O)n1OCC(C)C | -9.23
66 | Clc1ccc(/C=C/c2ncc[nH]2)c(Cl)c1 | -2.62

Row | SMILES | hERG current change (%, negative = inhibition) at 10uM [%]
67 | Nn1c(SCC(=O)Nc2ccc(S(N)(=O)=O)cc2)nnc1-c1ccco1 | -2.12
68 | Cc1cc(=O)oc2cc(OCC(=O)OCC(=O)NC(=O)NC(C)C)ccc12 | 13.2
69 | CCCCN1C(=O)NC(=O)C2(Cc3c(nc4c(C)cccn4c3=O)N3CCc4ccccc4C32)C1=O (stereo not shown) | -8.41
70 | Fc1ccccc1N1CCN(Cc2cnc(Cl)s2)CC1 | 20.7
71 | CC(=O)c1sc(NC(=O)c2ccc(C)c(C)c2)nc1C | -2.61
72 | O=[N+]([O-])c1ccccc1CS(=O)(=O)c1ccccc1 | 0.0419
73 | Cc1ccc2c3c([nH]c2c1C)-c1nonc1CC3 | 20.2
74 | Cn1c(O)c(C(=O)c2ccccc2F)c(=O)n(C)c1=O | 8.56
75 | CCN(CCCNc1ncnc2nc[nH]c12)c1cccc(C)c1 | -22.7
76 | CCOc1cccc2sc(N(CCCN(C)C)C(=O)c3ccc(S(=O)(=O)N(C)Cc4ccccc4)cc3)nc12.Cl | -40.4
77 | CC(C)(C)OC(=O)N[C@@H](CCCCNC(=O)OCc1ccccc1)c1nnc([C@H](CCCCNC(=O)OCc2ccccc2)NC(=O)OC(C)(C)C)o1 | -22.6
78 | COc1cccc(CNC(=O)C2CCN(S(=O)(=O)c3ccc4c(c3)CC(C)N4C(=O)C3CC3)CC2)c1 (stereo not shown) | 6.62
79 | CCN(CC)CCN1C(=O)Cn2c(C)c(C)c3cccc1c32.O=C(O)C(O)C(O)C(=O)O | -65.1
80 | Cc1cc(C)c(C#N)c(Nc2ccc3c(c2)OCCO3)n1 | 5.17
81 | COc1ccc([C@H]2CC(=O)C=C(c3cc(OC)ccc3OC)C2)cc1 | -15.6
82 | CCCCNC(=O)N1CCC(CCC(=O)N(C)Cc2ccccc2)CC1 | -3.81
83 | COc1cc(Cl)ccc1OCc1cc(C(=O)N(C)CCc2c(C)n[nH]c2C)no1 | -19.5
84 | Cc1ccc(-c2nc(C=Nc3ccccc3)c(O)o2)cc1 | 12.6
85 | FC(F)Oc1cccc(NC(=S)N2CCN(c3ccccn3)CC2)c1 | 8.99
86 | COc1ccc(/C=C/c2noc(-c3ccccc3OC(C)=O)n2)cc1 | 13.2
87 | O=C1NC(CCc2ccccc2)C(=O)N1CCOc1cccc(Br)c1 (stereo not shown) | 7.05
88 | Cc1cc(S(=O)(=O)N2CCc3ccccc3C2)ccc1F | 7.2
